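Method: 48-hour compound exposure of cells in 96-well plates, five concentrations, linear interpolation of endpoints. GI50 is the concentration that inhibits growth by half. TGI marks complete inhibition of growth.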
Test system: NCI-H322M lung
Experiment: growth of human tumour cells (NCI), 48 h

Structure (SMILES): COc1ccc([C@H]2C(C(=O)c3ccc(Cl)cc3)C3(N[C@@H]2c2ccccc2)C(=O)Nc2ccc(Br)cc23)cc1 (some centres not stated)
- GI50: 13.4 µM
- TGI: > 53.3 µM

Reference: PubChem BioAssay (NCI)
